Source: the supplement of paper PMC11417369
± gives the standard deviation of the averaged measurements. The list shows a part of the results.

The sequences below were run on PfAP2-LT AP2 domain (GST-tagged) (assay: gcPBM binding intensity (ln(normalized median fluorescence intensity)); higher = stronger DNA binding).
In short: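 Plasmodium falciparum DNA-binding domains carrying a GST tag were expressed in E. coli and applied for 1 h, at about 25 μg on average, to an Agilent 4 × 180k array. The array held primer-extended double-stranded 36-bp intergenic genomic probes together with negative controls, and binding took place in 1× PBS with 1% milk, 0.2 mg/ml BSA, 0.5% salmon testes DNA and 0.03% Triton X-100. An Alexa488 anti-GST antibody detected bound protein, and the array was scanned at 488 nm. Binding intensity is taken as the highest Masliner-normalised natural-log median intensity across replicate spots of either probe orientation.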

Row | Sequence | gcPBM binding intensity (ln)
1 | ATAAGCTCATGCAGGTGTACACAAAAAGAAAAAAAA [XGTACX_site2433] | 9.05 ± 0.64
2 | ATAATGAAAAGGAACATACACACCCCATATAAATAT [CACACA_site3442] | 9.61 ± 0.12
3 | AAAAAAAGTAAATGTTGTACTATAATATGTAATATA [XGTACX_site7966] | 8.63 ± 0.55
4 | ATATACATATCCATATTTATATCTATATTTAAAACA [CACACA_negctrl_site747] | 8.46 ± 0.5
5 | TACATATATATTATATGTACTTATATTTTTATAATA [XGTACX_site3452] | 8.59 ± 0.46
6 | AACCACATACATATAACACACATATACAATCTATAT [CACACA_site1987] | 9.36 ± 0.47
7 | AAATAACACTAATGATGTACTCAACTATTTATAATT [XGTACX_site8183] | 8.71 ± 0.47
8 | TATGAAATTTTAATTACACACAGGAAAATAAAATGG [CACACA_site4935] | 8.8 ± 0.36
9 | TAAAAAAAATATTTTTGTACGAATTAAATTTTTTTT [XGTACX_site4838] | 8.27 ± 0.48
10 | ACATATTTTTAATACACACTCAAAAAAGTACTTAAC [CACACA_site3014] | 8.73 ± 0.4
11 | TTTTTATAACTATATTATATAACTTTTGTACGAACT [CACACA_negctrl_site1423] | 8.7 ± 0.59
12 | ACATATAAATAAATAAATATATATATATATATATAT [GTGCAC_negctrl_site378] | 9.44 ± 0.28
13 | TATTTACACCTAATCACAAATAAAATAAAATCAAAT [CACACA_negctrl_site531] | 8.66 ± 0.47
14 | GATAAGGTATTCAAATGTACAAAATGTTTTATATAA [XGTACX_site6863] | 8.65 ± 0.56
15 | TAAATCAAAATAATTTAACACACAATTTTAATACTG [CACACA_site8744] | 8.7 ± 0.34
16 | AAATTATTAAGTGATATAATATTCTATAGATGGGGA [CACACA_negctrl_site168] | 8.55 ± 0.43
17 | TATATGATATAATATACACACATACAGATATATATA [CACACA_site4440] | 9.06 ± 0.32
18 | AGAGGTAGAGAGAAAACATGCATAATGATTTTCATA [TGCATGCA_site958] | 8.79 ± 0.53
19 | TAGAGGTATAAAATATGTACTTATAAAAACATGAAT [XGTACX_site8916] | 8.79 ± 0.45
20 | TTTTCCAATTTAAAAGCATGCATCTGTTTTTTTTTT [TGCATGCA_site482] | 8.61 ± 0.47
21 | TTTTTCATTTCTGCATTTATTTATAAATAAATATTT [CACACA_negctrl_site368] | 8.56 ± 0.47
22 | ATATATATTATATAAGTGCATAATATTCTTTCTTTT | 8.59 ± 0.39
23 | TATATATTTTGTGTCTGTACACATATTATTAATTCC [XGTACX_site7507] | 8.85 ± 0.52

Row | Sequence | gcPBM binding intensity (ln)
24 | TTTTTTTATCAATGTTGTACTTTTTTTTTTTTCCAT [XGTACX_site8864] | 8.64 ± 0.56
25 | TATAAGAGAATATATACACACAAAAATATATACAGT [CACACA_site1668] | 9.33 ± 0.34
26 | TACACGCATGGACACACACACACACCCATATATATA [CACACA_site4522] | 10.3 ± 0.35
27 | TTCAAATATAAATACACACACATAGCTACAAAATAA [CACACA_site4172] | 9.51 ± 0.35
28 | TTCTTAAAAGGAAAGGTGCAACTTTATCATTTTCTT | 8.49 ± 0.48
29 | TATCATATATAAAGAGGTACGTAAGAATAGAAAATT [XGTACX_site798] | 9.06 ± 0.49
30 | TAAATACATAAATACACACACATATATTATATATAT [CACACA_site4310] | 9.47 ± 0.23
31 | ATATTAACTATCATAACACACACAGTAGACATATTT [CACACA_site6941] | 9.31 ± 0.16
32 | ATATATATATAAAGTTGTACATTTTTTATTTTTTCA [XGTACX_site7847] | 8.74 ± 0.38
33 | AAATTAATTAAATATACACACATATATAAATATATA [CACACA_site391] | 8.79 ± 0.39
34 | TTGTTTTTAGTTTATACACACCATATTAATATAATG [CACACA_site7452] | 8.92 ± 0.47
35 | TTATATTATGGACACACACACAAAAAAAAAAAAAAA [CACACA_site7744] | 9.32 ± 0.51
36 | ATTTGGCATGGACACACACACACACCGACAGACATA [CACACA_site4491] | 10 ± 0.27
37 | TATATATATATGTATACACACATATGTATGTTATGT [CACACA_site4053] | 9.57 ± 0.2
38 | TTTGTTAATTATAAATGTACATATTATATATATATA [XGTACX_site8870] | 8.52 ± 0.44
39 | GCATAATATACTCTTACACACCATTTCTATATACAT [CACACA_site6799] | 9.29 ± 0.49
40 | AAAATATATTATATATGTACATATTACGTTTTAATT [XGTACX_site2518] | 8.91 ± 0.35
41 | CAATTTTAAGTAATCAATTTTTTTAAAAAACACAAA [CACACA_negctrl_site961] | 8.21 ± 0.45
42 | TTAAAACCAAAACACAGTACATATATATATATATAT [XGTACX_site5668] | 9.71 ± 0.23
43 | TTAATATTAATATATTGTACATATATGCACATATTT [XGTACX_site6569] | 8.82 ± 0.4
44 | AACGTTCATATTTCCACACACAAAAAATAAATATAA [CACACA_site3344] | 9.2 ± 0.4
45 | AATATTATAATATAAACACACAAAATTCAATTATAT [CACACA_site3789] | 8.85 ± 0.41
46 | AAAAATAAAGGGCGAAAAAAAAAAAAAAAAAAAAAA [GTGCAC_negctrl_site671] | 8.34 ± 0.47

Row | Sequence | gcPBM binding intensity (ln)
47 | CTTGTATTTAAACACACACACACTTTCTTTTTTTAA [CACACA_site5133] | 9.37 ± 0.31
48 | TTGATGATATAAAAAAGTACTTATATTATATTATAT [XGTACX_site6492] | 8.56 ± 0.49
49 | TTTCCTATTTAATATAGTACATAAGAAATAATTTTA [XGTACX_site5952] | 8.05 ± 0.32
50 | TTGACACGTATATGCACACACCCGTAAGTGTCCATT [CACACA_site2764] | 9.47 ± 0.31
51 | ATATTTTATTATTGTTGTACTTTTTTTTGATTGTTT [XGTACX_site4090] | 8.98 ± 0.38
52 | TTTTTTATGAACACGTCACACATCATTAAAATGTTT [CACACA_site5934] | 8.79 ± 0.52
53 | TCACACATATATTCATGTACATATTAATATTTCCAT [XGTACX_site5387] | 8.92 ± 0.34
54 | TTTAATATTTTTCAATGTAGAAAGTTTGTCTGTTAT [CACACA_negctrl_site973] | 8.51 ± 0.5
55 | AGTTATAAACATATGTGTACTTATAAAAACATATAG [XGTACX_site3268] | 8.9 ± 0.41
56 | TTAAATATAAAAAGTAGTACATTTATATTTACCATA [XGTACX_site2962] | 8.46 ± 0.36
57 | TCAAATTATATGAGTGGTACACATGTAATATTTTTA [XGTACX_site6518] | 8.71 ± 0.44
58 | AAAAAACGACCTTACGCACACATTATTCTAGTCTAT [CACACA_site2349] | 9.24 ± 0.45
59 | AAAAAAATATATATTACACACATATATACATATATA [CACACA_site3125] | 8.88 ± 0.4
60 | ATATATATATATATATGTACTTATTAAGATTAAAAA [XGTACX_site61] | 9.2 ± 0.11
61 | TTACATTTTTTATGTTTTTTTATATTGCAAAAAAAT [CACACA_negctrl_site1050] | 8.4 ± 0.42
62 | ATATTTTGTATAATCACACACACTATTATTAAATAG [CACACA_site2612] | 9.13 ± 0.28
63 | TACATAAAAATATCACGTACATATAATCATATACTA [XGTACX_site3505] | 8.66 ± 0.37
64 | ATATTTCATCTAGCTACACACATATAACAAATTACT [CACACA_site7843] | 9.09 ± 0.4
65 | TTCTTTTTCCAATTTGCACACCACAAAATTATATAT [CACACA_site2909] | 9.01 ± 0.49
66 | ACCTTTGATATATACACACACATAAAAAAAATATAT [CACACA_site6952] | 9.37 ± 0.31
67 | AAAAAAAAAAAAAAAACACACATACACCCCCACCCA [CACACA_site9117] | 9.89 ± 0.18
68 | ATTAATAATATTCCTTGTACATGATTTTTCTAAATA [XGTACX_site7099] | 8.59 ± 0.41
69 | TATAAATATAAATACACACACACATCAATACAGATA [CACACA_site5850] | 9.86 ± 0.014

Row | Sequence | gcPBM binding intensity (ln)
70 | TGCACAGACGGACACACACACAACTAAAAAATAATG [CACACA_site5424] | 9.69 ± 0.61
71 | TGTGTTAATAGAAAAAGTACATATACATATATATAT [XGTACX_site4951] | 8.75 ± 0.44
72 | TCTTTTGAACAAATTTGTACGTATATAAAAATATTT [XGTACX_site6547] | 8.43 ± 0.45
73 | AATGAATTAATAGCTACACACGGTAACATAATAACT [CACACA_site851] | 9.07 ± 0.4
74 | TATAATAATGCCTTTACATGCAATAATAAAGAAATA [TGCATGCA_site631] | 8.62 ± 0.36
75 | CGCATACACCAACACACACACACATATATATATATA [CACACA_site635] | 9.96 ± 0.48
76 | TATAAATACTTATATGTACACACATATAGATATATA [CACACA_site8819] | 8.82 ± 0.33
77 | TAGATCTTATTTACAAGTACATATATACGATTCATT [XGTACX_site7578] | 8.72 ± 0.48
78 | AGAAGTCTGTAATGATGTACTGGAAAAATATAAATA [XGTACX_site8148] | 8.64 ± 0.48
79 | ATCTAATATATATTCTGTACGTAATTAAAACCACAA [XGTACX_site3152] | 8.65 ± 0.31
80 | ATGTTGTCAAAAAAATGTACTTACATAATATTTTCC [XGTACX_site1732] | 8.55 ± 0.42
81 | ATATATATATATATTTGTACATATATATAATTTTTC [XGTACX_site7460] | 9.08 ± 0.52
82 | TATAATTGTCTTCACACACACATATATATATATATA [CACACA_site2743] | 9.685 ± 0.064
83 | AAAATAAAAAAAAAAGGTACACAAAAAGATGGACTG [XGTACX_site2650] | 8.91 ± 0.57
84 | TTTTTTTTTTAAAAAACACACACCTAAACAAGATAT [CACACA_site875] | 8.8 ± 0.24
85 | TTAATTGACATAAAAAGTACTCATATAGATATGCAC [XGTACX_site6391] | 8.62 ± 0.43
86 | AAATGTTAATAAAGGTGTACACAAAATAAAAAAAAT [XGTACX_site463] | 9.34 ± 0.58
87 | AAAAAGAACAGAAACACACAAATAAAATAAAATTGT [CACACA_site6921] | 9.21 ± 0.46
88 | TAATTTTATTTTATATGTACGCAATACAAATATATA [XGTACX_site8461] | 8.44 ± 0.36
89 | ATAAAAATAAAAAGTGTGCACACAAAAATATATATA [GTGCAC_site9931] | 9.62 ± 0.36
